These results are taken from the RNAGym collection of RNA variant scans (doi:10.7554/elife.90254).

Sequences and labels used below:
B1: LINE1-mini (parent)
chain: GGCAGAGCUCAACACAGCGUGGCAAAGUGGCUGUGGCUAGACUGCC

Read counts are not given, so values of variants with three or more changes are uncertain.

Variants of B1 are the subject of this series. Briefly: self-cleavage, relative activity (ratio to wild type); higher = more cleavage; in vitro, sequencing; the parent is a self-cleaving ribozyme.
On to G5C C10U C13G A14C, for which the self-cleavage was found to be 0.03. Take G5U G22A G30U: the self-cleavage came to 0.05.

Consider G5U G21C G44A, for which the self-cleavage stood at 0.02. The figure for G5C U20G G29A G40C is 0.01. In the case of G5U A6U C8U A24G C37U C45G it was 0.51; in that of G5U A6U C37U C45G, 0.03; in that of G5U G36A G40U C45U, 0.04. With G5U A6U U9A U20C U32C, the self-cleavage is 0.08. The figure for G5U A16C A24G is 0; for G5C U38A A41U C42G it is 0.08. The figure for G5U A14C C15G G36U C46G is 0.01. In the case of G5C C31U G33A C45U it was 0.05.

In the case of G5U A11C C18U C23A U38C A41U, the self-cleavage stood at 0.

As to G5U G21C G35U, the self-cleavage was found to be 0.05.

In the case of G5U C15U C31G C37U, the self-cleavage worked out at 0.04. In the case of G5U A24U C46A it was 0.04; in that of G5C G44U C46G, 0.19. Consider G5C G7U A11C G27U G30U, for which the self-cleavage turned out to be 0.02.

For the variant G5U C15A G35U, the self-cleavage was 0.03. Consider G5C C15G G19A A25G, for which the self-cleavage turned out to be 0.04. Take G5U U9A A12U A25U U34A C37U: the self-cleavage worked out at 0.01. The figure for G5U G7A G19U is 0.1; for G5U A14U A24C G40A it is 0.04.

In the case of G5U C15A C42A, the self-cleavage amounted to 0. As for G5U C8G C13A G22U C45U, the self-cleavage was 0.13. The figure for G5U A6C C8U G35U is 0.1. Regarding G5C C13G U20C C37U A39G, the self-cleavage amounted to 0.02. In the case of G5U C8G U20G U32C G44U it was 0.03; in that of G5C G7C U9A G35A A41U, 0.06; in that of G5U G7U C37U G40C C42G, 0.2.

For G5U G7U C18G A39U, the self-cleavage amounted to 0.35. Take G5U C23A G33A U34C: the self-cleavage worked out at 0.02. In the case of G5U G21C U43C it was 0.05; in that of G5U A24C C42U, 0.03. The figure for G5C C13G A25C C37G C45U is 0.05; for G5U A6G G35A C37U it is 0.02. The figure for G5C G35C G40U is 0.05; for G5C U20C G40U C46U it is 0.02.

Regarding G5U G30U C31U, the self-cleavage amounted to 0.08. Consider G5U G27A U32G A41C C42A, for which the self-cleavage is 0.02. In the case of G5U C15A G30U G33U U34G U38C C45U it was 0.01; in that of G5U C18U G44A, 0.05; in that of G5C G7U A11G G17C C23U U32C, 0.05. Regarding G5U C23G G33U, the self-cleavage was 0.02.

G5U G30C A39U: the self-cleavage was found to be 0.01. In the case of G5U A14C A25C G33C it was 0.08.

For the variant G5U A14G C15U C18G G21U C23A C46A, the self-cleavage was 0.02. The figure for G5U A11U C15U A25G U28A C45A is 0.01; for G5U G7U A39C it is 0.09; for G5U C18G G21U it is 0.03. The figure for G5C C13A C23U G27U G33U U43G is 0. G5C U9A G44U: the self-cleavage amounted to 0.02. The figure for G5U C8G U34C is 0.08. In the case of G5U G29U C42G C46A it was 0.01; in that of G5C G17U C31U A39U, 0.02. The figure for G5U C42A C45G is 0.07; for G5C G22U G33A it is 0.04; for G5U G7C C10A C23U it is 0.03. With G5C C18U U38C, the self-cleavage was 0.02. In the case of G5C G33C U43C it was 0.03; in that of G5U C10A G22U A39U, 0.01; in that of G5U G19A G27U G30A C31G G33A, 0.05. The figure for G5C U38C C45G is 0.03. The figure for G5C G21U G36C is 0.07; for G5U G7U C15A A26C G27A U32G it is 0.26; for G5U C8U U9A G22C A41U it is 0.15.

As to G5C U38A A41C, the self-cleavage is 0.04. In the case of G5U C37G U38A it was 0.03; in that of G5U G22U A39C, 0.03; in that of G5U A12C G35A A41C, 0.23. In the case of G5U C10U A11C G40C it was 0.03.

G5C U9A C13A G44U: the self-cleavage is 0.01.

For the variant G5U A14C A26G G44U, the self-cleavage is 0.02.

For G5U A14G G36U, the self-cleavage worked out at 0.03.

Regarding G5U A16G G22U, the self-cleavage worked out at 0.03. In the case of G5U C23U A24U it was 0.05; in that of G5U A11G G35A U38A, 0.05.

As for G5C C18U C31U U38A, the self-cleavage came to 0.04. In the case of G5U G7C C15A G21U it was 0.07; in that of G5C U9C C13U A26C C37U, 0.01; in that of G5C G40A G44U, 0.01. In the case of G5C G36A A39U it was 0.03; in that of G5C C15U A24G A41G C42G G44U C45U, 0.01; in that of G5U G7A G22U A41C, 0.11. The figure for G5U G7A G40A is 0.48.

Regarding G5U A14G G17U G22A, the self-cleavage was determined as 0.11. In the case of G5C G7A A14C U34A it was 0.1; in that of G5U G7A G17U G27U G44U, 0.18. The figure for G5U A24C U38A G40A is 0.03; for G5C G17C C18U G33C G44U it is 0.04; for G5U A11C U20A it is 0.01. In the case of G5C G21C C42A it was 0.09.

In the case of G5C G19U A41U C42U, the self-cleavage stood at 0.04. In the case of G5U A6C G22C A26G C42A it was 0.09. The figure for G5U A14G G19U is 0.06; for G5C C15G C18A G22C it is 0.02. In the case of G5U G7A G21A A24G A26U C46A it was 0.32; in that of G5C G27C U34A, 0.04. On to G5U A6U A14G G27A G30C G35U G40C, for which the self-cleavage came to 0.07. The figure for G5U A11G A16U G27C is 0.02. As for G5C G22C G27C, the self-cleavage was found to be 0.05. The figure for G5U G30C C31G is 0.05. In the case of G5C C23A C37G it was 0.02; in that of G5C G17A C31U, 0.02. The figure for G5U A16G A39C is 0.01; for G5C U38C A39G it is 0.02. In the case of G5C G19A U38A C42G, the self-cleavage is 0.23.

As for G5U C15A C31A, the self-cleavage is 0.04. In the case of G5C G7A G44U C46G it was 0.16. As to G5U G19A G44C, the self-cleavage was 0.05. The figure for G5U G7A C46A is 0.12. The figure for G5C G29U A41G is 0.06. As to G5U C23A A24U U34C A39G U43G C46U, the self-cleavage came to 0.01. In the case of G5U C8G C18G it was 0.07; in that of G5U A11C G33A, 0.01; in that of G5U C18A G22U G27U U32A, 0.03. The figure for G5U A12U A39U A41G U43G is 0; for G5C U32G C46A it is 0.03.

In the case of G5C G35A C42A, the self-cleavage turned out to be 0.01.

Take G5U G7U C10U C15A G30A U38C A41U: the self-cleavage came to 0.14.

With G5U G7C C13A C46A, the self-cleavage was 0. The figure for G5U A6U C18A is 0.1; for G5U C15A G36A A39U C46A it is 0.01.

G5C C13A A24U A39U C45G: the self-cleavage is 0.01. As to G5U G35C C37G, the self-cleavage is 0.04. The figure for G5U G22A G29A A39G is 0.04; for G5U A6G G21C G22C G36A U43C G44C it is 0.09; for G5U G29C G36U A39U it is 0.01.

For G5U A11G A14G G30U U32A G44C, the self-cleavage is 0. Regarding G5U A6G C10G A16G G40A, the self-cleavage amounted to 0.01. In the case of G5U A25C G35U it was 0.04; in that of G5C C18A G27A, 0.04. In the case of G5C G7C A24U it was 0.1; in that of G5C U9C C18U G35C, 0.01. G5U G21U U28G G30A U34G G40A: the self-cleavage was 0.01. In the case of G5U G27U C46A it was 0.22. In the case of G5U C31U U34A U43C it was 0.02. In the case of G5U A24C A26G U43C it was 0.05; in that of G5U G30C U32G, 0.04.

For G5C G21U G35A, the self-cleavage is 0.02. The figure for G5U A16C U38C is 0.03; for G5C G27U G29A it is 0.08; for G5C U9C U34A it is 0.07.

As to G5C C18G G40A, the self-cleavage came out at 0.12. In the case of G5U G19U A24C G44U it was 0.03. In the case of G5U A6U C13G G17U A39C G40U C46A it was 0.03; in that of G5U A24G G36A C37A, 0.05; in that of G5U G21C G29A G33U, 0.06.

In the case of G5C G19U G44U, the self-cleavage came out at 0.01. As to G5U C8U A12G C13G G33U G36A A39C, the self-cleavage came out at 0.03. In the case of G5C C15A G40U C46A it was 0; in that of G5C C10U G36U, 0.03; in that of G5C U9G U20A G21A C37U A39U, 0.01. In the case of G5U G35U C37U it was 0.07. The figure for G5U C10U C13G U32A C42A C45A is 0.06; for G5U A11G C23G A24C A26G G44U it is 0.01; for G5C C10U C37A A39G C45U it is 0.01. On to G5U A41G C42U C46G, for which the self-cleavage amounted to 0.05. In the case of G5U C15A G21C C23A C31U G44U it was 0.01; in that of G5U G30A G33C A41U, 0.03; in that of G5U C13A G33A C37G, 0.03. In the case of G5U G36U A41U it was 0.03; in that of G5U G7C U34G, 0.01; in that of G5U C8G G36A, 0.42. The figure for G5U A24C A26G G33C G36U C45A is 0.01; for G5U C8A G33C it is 0.15; for G5U A6U A25G G30U U38G it is 0.02.
